Over roughly 33,000 sequences, “E-score (-0.5 to 0.5)” has its median near -0.013; the highest 2% begin near 0.3. This is one part of the list.
target: T1, Msn1 (UniProt P22148); test: PBM E-score (8-mer binding enrichment) (E-score (-0.5 to 0.5)); higher = stronger / more preferred TF binding; most listed sequences are background and not binding sites; details: protein concentration: 200 nM; construct: GST-full length
T1 sequence: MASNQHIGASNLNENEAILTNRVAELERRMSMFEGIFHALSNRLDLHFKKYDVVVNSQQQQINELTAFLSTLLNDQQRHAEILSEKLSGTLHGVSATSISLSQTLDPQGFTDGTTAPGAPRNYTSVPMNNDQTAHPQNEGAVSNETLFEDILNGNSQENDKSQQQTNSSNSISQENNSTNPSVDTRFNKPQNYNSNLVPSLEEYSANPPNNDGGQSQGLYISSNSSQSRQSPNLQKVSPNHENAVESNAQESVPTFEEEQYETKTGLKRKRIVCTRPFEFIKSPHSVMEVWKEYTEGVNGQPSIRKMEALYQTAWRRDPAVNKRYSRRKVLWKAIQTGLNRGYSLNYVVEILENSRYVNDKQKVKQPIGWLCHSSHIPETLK
In short: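 Yeast transcription factors, full-length or as DNA-binding domains, were expressed with a GST tag using PURExpress in vitro transcription/translation. At about 100-200 nM they were applied to universal all-10-mer Agilent arrays, double-stranded by primer extension on fresh or once-stripped slides. Fluorescent anti-GST detected bound protein, and masliner normalised the scans. E-scores for ungapped eight-base words, pooled with reverse complements, came from the Universal PBM Analysis Suite.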

Sequence	PBM E-score
GAAAGTTA	0.0769
AAGCACGC	0.0342
ATGAGTAG	-0.0662
CGAGACAG	-0.00132
ACGTTGTC	0.119
GGTTGGAA	-0.192
ACCAGGCT	-0.184
GCCCCGTA	-0.186
GGCCACTA	-0.188
CAACCCAA	-0.092
TGCCCACA	-0.279
AGTCGCAG	-0.0381
TCCTACAA	0.145
ACAACCGC	0.0262
TTCAGCAA	0.0262
CCCCAATC	-0.222
TATCGGCA	0.112
ACTCGGAA	0.143
CGGGAGTA	0.0678
GCAACAGC	-0.0393
ATTTCGAC	-0.0556
GGGCCCAC	-0.159
ACCGCTCA	-0.0179
AATTTGAT	-0.115
CGTCGCTC	0.112

Sequence	PBM E-score
AAGAGCGA	-0.206
GAAACTCA	0.0588
GCAATCCA	-0.0397
ACCAAATG	0.143
CGAAACAA	0.151
ACCCTAGT	-0.18
GTCATGAC	0.272
CGACTGCG	-0.184
GGGGTGCA	-0.0694
ACCATATA	0.209
CGTGGCCC	-0.221
AATCTCGA	0.106
CGGATAAG	-0.00604
AAAGTGCA	0.164
AAAAAGGC	0.00641
ACCCATAC	-0.118
ACTGCCCT	-0.175
ACACTGCG	-0.0692
CAAACGGA	-0.00924
AAGGAGGG	-0.257
CTACCTCC	-0.0369
AATGGTAT	-0.0291
AGACACGC	0.265
GTAACTCA	-0.219
GAGACGCC	-0.174

Sequence	PBM E-score
AGCCCAGG	-0.267
GACTTGTA	0.174
TCCAGACA	0.16
AACTGAGT	-0.00489
CCTCCTCA	-0.316
TAGCGAAA	0.0628
TAGCTACA	0.0862
ACAGCTGT	0.0915
TCGGCCGA	0.31
ATCAAAGC	-0.0592
ATGTGATG	-0.137
GGAGAAAC	0.0302
TCACCGGA	-0.0445
CCCCACAC	-0.104
CCCCTTTC	-0.253
CGCGGCGC	0.0917
ACATAGAT	0.281
CAAGAGAC	0.0882
ATCGCTGA	-0.0106
ACGAGGCC	-0.213
ACTTCCAC	-0.172
GCTTTCAC	0.014
ATGGTGTG	-0.045
AACGGGGG	-0.318
CCGAAGCG	0.00546

Sequence	PBM E-score
AAGGGAAA	-0.054
CCTGTATC	0.0611
ATCCAACA	0.0858
GCCGAGTA	0.0548
AGATCAAC	-0.0271
AGGTACCA	-0.036
ATGTTGCG	0.0962
CATACTAG	0.126
ATCTAAGC	-0.186
GCCCTCCA	-0.222
ATCTACCC	-0.131
CCATTACG	-0.0849
CACCCCCG	-0.237
CCCACACG	-0.0713
AGGTTTTG	-0.0837
ACCGGTGA	0.0967
ACAACTCT	-0.0195
ACAACTGA	0.114
ACTGTGCG	0.0446
ATTGTGTG	-0.0187
ACCTCCGA	-0.084
TACGTATA	0.0531
AAGGGACA	0.44
GGCTTACA	0.0257
GGATGGCA	-0.101

Sequence	PBM E-score
AGAGTATC	0.0564
GGGGCGAA	-0.115
TGTCCTAA	0.487
GAAGCTAC	0.126
AAATACCA	-0.0306
AACACAAC	0.103
AAAGCAAT	0.208
GCGTGGGA	-0.135
CCAAACAC	-0.0988
AACCGCTG	-0.175
AATACCAG	-0.0289
CACCCCCA	-0.236
CGAAAGGA	0.0453
AAAGCACG	0.0204
GCATTCTA	-0.00237
AAAGCGAG	0.116
AAGACCTG	0.00451
AGTTATCC	0.107
TGCGGGAA	-0.0298
CTAGCTGA	-0.066
AGTAAGAA	0.119
AAGAGAAA	-0.161
GAAATTGA	0.0876
GCTCAACC	-0.156
ACGTGTCC	0.455

Sequence	PBM E-score
ATGGCGAG	0.0414
CAGCCGTA	-0.0663
ACGTACGA	-0.00868
AGTATGGA	0.12
AGCCCGTG	-0.243
CACGATGA	0.0913
AATCAGGC	-0.03
GTTAAAGA	0.0691
CAGTAGCA	-0.0223
GATTGAGC	-0.0488
ACCCTCCT	-0.281
GGTGCAAA	-0.21
ACCAGACG	-0.0174
ATACCAGA	-0.00026
GGGCCGGA	-0.192
CTCACGGA	0.0943
ACACTGCC	0.104
ATTGGGAC	0.29
ACAGAGGG	-0.0916
ATCAACCG	-0.0592
CCCCAGGC	-0.3
ATTGTATC	0.0594
ATAATTAT	0.267
ATAAATGC	0.0672
CTTGTGCC	-0.121

Sequence	PBM E-score
ACCTTTCT	0.0216
CCTCTACC	-0.214
GTGAATAA	0.0378
AGGACCCT	-0.256
AGACACAA	0.332
CGTAAAAA	0.0697
ATGCTTTG	0.0676
TATGCATA	0.0323
ACTTTCCA	0.178
CATTTAGA	0.153
CTCAGAGA	-0.139
TGGTTAAA	0.0361
GGGATTAC	-0.315
ATTCGGCC	0.0205
GTCATCCA	0.0985
AAGGAACA	-0.0137
AATGGCCG	-0.00322
ATATCGTG	0.131
GAAGTGCC	0.0152
CGCACATC	-0.115
CTCTCGTC	-0.0428
AAAGAACG	0.0378

Reference: the supplement of paper PMC3334620
